According to PubChem BioAssay AID1347120 (National Center for Advancing Translational Sciences (NCATS), 2019):
Out of some 390,000 compounds screened, about 930 (0.24%) were called active. This list was built around the results that the source calls inconclusive (neither active nor inactive); the mix of calls is not that of the screen. Calls follow the shape of the dose curve; as a rule, active = well fitted activation curve with a large enough effect; inconclusive = small, poorly fitted or top-dose-only effect; inactive = no such curve, though single readings can be large or run the other way. Potencies of inconclusive entries are doubtful fits and often do not repeat.
Potency is read from the fitted curve at half-maximal effect; tags tell the direction and shape of the fitted curve.

Assay: qHTS for Suppressors of FUS Proteinopathy: Primary screen using FUS-linked yeast assay; also: nearly all actives have a fitted effect of over 55% in size;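 as to growth rescue (activation): plate controls were DMSO vehicle for no effect and reference control for full effect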
Settings: S. cerevisiae FUS-expressing, OD600, 24 h; Potency: growth rescue; growth rescue (activation): at 76.6 µM (top of the series)
In short: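 Toxicity suppression screen in FUS-yeast. Cells induced with 2% galactose, starting OD 0.005, treated 24hr at 30C with compounds at multiple final concentrations; growth by OD600.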
With `Cc1cccc(C)c1N1CCN(C(c2ccnc3ccccc23)c2nnnn2-c2ccc3c(c2)OCCO3)CC1` (stereo unspecified) the Potency was inconclusive: 25.1 µM [activator, partial curve].
With `O=C(Cc1cccs1)N1CCC(c2nc3c(nnn3Cc3ccccc3Cl)c(=O)[nH]2)CC1` the Potency was inconclusive: 44.7 µM [activator, partial curve, poor fit].
For `COc1cc(OC)c(C(=O)Nc2ccc(C(=O)c3ccccc3)cc2)cc1OC`, the Potency was inconclusive: 25.1 µM [activator, single point].
With `O=C(c1ccc2c(c1)N(Cc1ccc(Cl)cc1)C(=O)c1ccccc1S2=O)N1CCC(Cc2ccccc2)CC1` (stereo unspecified) the Potency was inconclusive: 14.1 µM [activator, partial curve, poor fit].
In the case of `O=C(Cn1ncn2c(cc3ccccc32)c1=O)NCc1ccco1`, the Potency is reported as inconclusive: 12.6 µM [activator, partial curve].
In the case of `Cc1csc(N(C(=O)c2cccc(S(=O)(=O)N(C)C)c2)c2ccccc2)n1`, the growth rescue (activation) is reported as inconclusive: 73.5% [activator].
With `CN(c1ccc(C(=O)Nc2ccccc2Sc2ccccc2)cc1)S(C)(=O)=O` the Potency was inconclusive: 50.1 µM [activator, single point].
With `COC(=O)CSc1nnc(-c2ccc(NS(=O)(=O)c3ccc(C)c(C)c3)cc2)o1` the Potency was inconclusive: 20 µM [activator, partial curve, poor fit].
With `COc1ccc(-c2ccc3c(c2)[C@@H]2C[C@H]4[C@@H](C(=O)N2CC3)[C@H](C)ON4C)cc1` the Potency was inconclusive: 28.2 µM [activator, single point].
With `O=C(O)CC1(CC(=O)Nc2ccc3ccccc3n2)CCCCC1` the Potency was inconclusive: 6.31 µM [activator, single point].
In the case of `N/C(=N\OC(=O)Nc1ccc(Cl)cc1)c1ncc(C(F)(F)F)cc1Cl`, the Potency is reported as inconclusive: 39.8 µM [activator, single point].
For `Cc1ccc(CNC(=O)C2CCN(S(=O)(=O)c3cccs3)CC2)o1`, the Potency was inconclusive: 17.8 µM [activator, partial curve].
With `COc1cccc(N2CCN(C(=O)c3cc(-c4ccc(F)cc4)[nH]c3C)CC2)c1` the Potency was inconclusive: 28.2 µM [activator, partial curve, poor fit].
In the case of `CC1(Cc2ccccc2OC(F)(F)F)C(=O)Nc2c(Cl)ccc(Cl)c21` (stereo unspecified), the “growth rescue (activation)” value is reported as inactive: -19.6%.
With `COc1ccc(CN2C[C@H](Cc3ccccc3)[C@@H](CC(=O)Nc3ccccc3)C2=O)cc1` the Potency was inconclusive: 17.8 µM [activator, partial curve].
In the case of `CCOC(=O)C1=C(C)N(c2ccc(OC)cc2)C(=O)/C1=C\c1ccc(O)c(OCC)c1`, the Potency is reported as inconclusive: 3.55 µM [activator, full curve].
In the case of `COc1ccc(C)cc1NS(=O)(=O)c1ccc2c(c1)NC(=O)C(C)S2` (stereo unspecified), the Potency is reported as inconclusive: 3.55 µM [activator, full curve].
With `CCOC(=O)[C@]12CCC=C1N(CCC1=CCCCC1)C(=O)[C@H](CC(=O)NCC1CCCCC1)C2` the Potency was inconclusive: 14.1 µM [activator, partial curve, poor fit].
For `COC(=O)[C@]12C[C@H](CC(=O)N3CCN(C(=O)C4CC4)CC3)C(=O)N(Cc3ccc(Cl)cc3Cl)C1=C[C@H](C(C)C)O[C@@H]2C1CC1`, the Potency was active: 28.2 µM.
In the case of `Cc1ccc(NC(=O)CSCC(=O)N(CCC(C)C)c2c(N)n(Cc3ccccc3)c(=O)[nH]c2=O)cc1`, the Potency is reported as inconclusive: 35.5 µM [activator, partial curve, poor fit].
For `COc1ccc(F)cc1-c1cc(NC(C)=O)c2ncc(-c3cccc(C(F)(F)F)c3)n2c1`, the Potency was inconclusive: 25.1 µM [activator, single point].
In the case of `COc1ccccc1N(CC(=O)NC1CCCC1)C(=O)CCC(=O)Nc1ccccn1`, the “growth rescue (activation)” value is reported as inactive: -15.6%.
With `O=C(Nc1nnc(-c2ccccc2Cl)s1)C1CCN(S(=O)(=O)c2ccc(Cl)cc2)CC1` the Potency was inconclusive: 11.2 µM [activator, single point].
With `CCOc1cc(/C=C2/SC(=S)N(CC3CCCO3)C2=O)ccc1O` (stereo unspecified) the “growth rescue (activation)” value was inactive: 1.39%.
For `CCOC(=O)c1ccc(/C=C2\c3ccccc3C(=O)N2c2ccccc2)cc1F`, the Potency was inconclusive: 44.7 µM [activator, single point].
For `Clc1ccccc1-c1nc2nc3ccccc3nc2n1-c1ccc2c(c1)OCO2`, the Potency was inconclusive: 14.1 µM [activator, partial curve, poor fit].
With `COc1ccc(N(C)C(=O)c2cc3c(s2)-c2c(C)cccc2OC3)c(OC)c1` the Potency was inconclusive: 35.5 µM [activator, single point].
In the case of `O=C(O)CCc1ccc(-c2ccc(Cl)cc2)o1`, the “growth rescue (activation)” value is reported as inactive: 16.3%.
For `Cc1cc(C)n(-c2cc(N3CCN(C(=O)c4cccc(Br)c4)CC3)ccc2[N+](=O)[O-])n1`, the Potency was inconclusive: 25.1 µM [activator, partial curve, poor fit].
For `Cc1ccc(C(=O)O)cc1NC(=S)NC(=O)Cc1ccccc1`, the growth rescue (activation) was inconclusive: 72.3% [activator].
With `CCC1CCc2sc(C(=O)N(C)CC(=O)Nc3ccc(OC)cc3)cc2C1` (stereo unspecified) the “growth rescue (activation)” value was inactive: 8.57%.
In the case of `COc1ccc(-c2ccc(CN3C(C(C)C)C(=O)N(Cc4cn(Cc5ccco5)nn4)CCS3(=O)=O)cc2)cn1` (stereo unspecified), the Potency is reported as inconclusive: 31.6 µM [activator, single point].
With `O=C(CCl)Nc1cn(-c2ccccc2)nc1-c1ccc(F)cc1` the “growth rescue (activation)” value was inactive: 8.72%.
With `O=C1CN(C(=O)CSc2nc3ccccc3c(=O)n2Cc2ccc(F)cc2)c2ccccc2N1` the Potency was inconclusive: 25.1 µM [activator, single point].
With `CCOC(=O)c1cc(S(=O)(=O)N2CCN(c3cccc(C)c3C)CC2)[nH]n1` the Potency was inconclusive: 50.1 µM [activator, single point].
For `CCC1=NN2C(=N)/C(=C\c3cccn3-c3ccc(C)cc3C)C(=O)N=C2S1`, the Potency was inconclusive: 28.2 µM [activator, single point].
With `COc1ccc(CCNC(=O)c2ccc(Br)o2)cc1Br` the “growth rescue (activation)” value was inactive: 3.75%.
For `C=CCS(=O)(=O)N1CCC(CCOc2ccccc2)(C(=O)OCC)CC1`, the “growth rescue (activation)” value was inactive: -0.435%.
For `Cc1cccc(C2=NN(c3ccc(Br)cc3)[C@@H](C(=O)N3CCOC3=O)[C@@H]2c2ccc(F)cc2)c1`, the Potency was inconclusive: 35.5 µM [activator, single point].
With `COc1cc2ccccc2cc1C(=O)N1CCN(C(C)=O)CC1` the “growth rescue (activation)” value was inactive: -11.2%.
In the case of `O=C(C[C@H]1C[C@H](C(=O)N2CCOCC2)[C@@]2(CCC3CCCC3)c3[nH]c4cc(-c5ccco5)ccc4c3CCN2C1=O)NCc1ccco1`, the Potency is reported as inconclusive: 50.1 µM [activator, single point].
With `Cc1cccc(COCC(Cc2ccccc2)N2CCN(C(=O)c3cc(Cl)cc(Cl)c3)CCC2=O)c1` (stereo unspecified) the Potency was inconclusive: 17.8 µM [activator, single point].
In the case of `O=C(COc1ccc(Cl)cc1)NNC(=O)c1ccccn1`, the “growth rescue (activation)” value is reported as inactive: -4.19%.
With `Cc1ccc(NC(=O)CN(C)C(=O)c2cc(-c3ccccc3)nn2-c2ccccc2)cc1` the Potency was inconclusive: 35.5 µM [activator, single point].
In the case of `CC(OC(=O)c1ccco1)C(=O)NCc1cccs1` (stereo unspecified), the “growth rescue (activation)” value is reported as inactive: 31.6%.
In the case of `NC(=O)c1nsc(C(=O)N(c2cccc(F)c2)C(C(=O)NCC2CCCO2)c2ccc3ncccc3c2)c1N` (stereo unspecified), the Potency is reported as inconclusive: 44.7 µM [activator, single point].
With `O=C(Nc1ccc2c(c1)OCO2)c1cc(C2CCCCN2C(=O)c2ccc(Cl)cc2)on1` (stereo unspecified) the Potency was inconclusive: 39.8 µM [activator, single point].
With `CC(C)(C)OC(=O)C(Oc1ccccc1[N+](=O)[O-])C(=O)OC(C)(C)C` the “growth rescue (activation)” value was inactive: 18.4%.
For `CCCCNC(=O)CN1C(=O)c2c(c3ccccc3n2C)C1c1ccc(OC)cc1` (stereo unspecified), the “growth rescue (activation)” value was inactive: 18.9%.
With `Cc1cc(NCC(=O)Nc2ccc(C)c(S(=O)(=O)N3CCOCC3)c2)ccc1Br` the Potency was inconclusive: 25.1 µM [activator, single point].
In the case of `CCCCNc1c(-c2ccc(OC)c(Sc3ccc(OC)cc3)c2)nc2ccccn12`, the Potency is reported as inconclusive: 31.6 µM [activator, single point].
With `C[C@]12C=CC(=O)C=C1CC[C@@H]1C2=CC[C@]2(C)[C@@H](C(=O)CN3CCN(c4cc(N5CCCC5)nc(N5CCCC5)n4)CC3)CC[C@@H]12` the Potency was inconclusive: 35.5 µM [activator, partial curve, poor fit].
In the case of `COc1ccc(-c2cc(C(=O)N/N=C/C(C)=C\c3ccco3)[nH]n2)cc1`, the “growth rescue (activation)” value is reported as inactive: 37.5%.
With `O=C(NC12CC3CC(CC(C3)C1)C2)c1cccc(OC(F)F)c1` the “growth rescue (activation)” value was inactive: 14.5%.
For `CCCCC1CC2=C(C(=O)OC(C)(C)O2)C(c2ccc3ccccc3c2)O1` (stereo unspecified), the Potency was inconclusive: 50.1 µM [activator, single point].
With `Cc1ccc2nc(-c3ccncc3)c(NC3CCCC3)n2c1` the Potency was inconclusive: 8.91 µM [activator, full curve, poor fit].
In the case of `O=C(c1cnc2c(c1)COc1ccccc1-2)c1ccccc1O`, the “growth rescue (activation)” value is reported as inactive: 27.7%.
For `COC(=O)c1ccc(NC(=O)N2CCN(c3nnc(C)c4c(C)n(-c5ccccc5)nc34)CC2)cc1`, the “growth rescue (activation)” value was inactive: 4.56%.
For `CCN1C(=O)[C@H]2[C@@H](c3ccc(SC4CCCCC4)cc3)N[C@@](CC(C)C)(C(=O)OC)[C@H]2C1=O`, the Potency was inconclusive: 12.6 µM [activator, partial curve, poor fit].
In the case of `CCN(CC)C(=O)C12CC3CC(CC(Br)(C3)C1)C2`, the Potency is reported as inconclusive: 11.2 µM [activator, single point].
In the case of `NC(=O)CSc1oc(-c2cccs2)nc1S(=O)(=O)c1ccc(Br)cc1`, the Potency is reported as inconclusive: 50.1 µM [activator, single point].
